The results in this text go back to the GPR68 mutational scans of Howard et al. (2025).

B1: GPR68, Q15743 (parent)
chain: MGNITADNSSMSCTIDHTIHQTLAPVVYVTVLVVGFPANCLSLYFGYLQIKARNELGVYLCNLTVADLFYICSLPFWLQYVLQHDNWSHGDLSCQVCGILLYENIYISVGFLCCISVDRYLAVAHPFRFHQFRTLKAAVGVSVVIWAKELLTSIYFLMHEEVIEDENQHRVCFEHYPIQAWQRAINYYRFLVGFLFPICLLLASYQGILRAVRRSHGTQKSRKDQIQRLVLSTVVIFLACFLPYHVLLLVRSVWEASCDFAKGVFNAYHFSLLLTSFNCVADPVLYCFVSETTHRDLARLRGACLAFLTCSRTGRAREAYPLGAPEASGKSGAQGEEPELLTKLHPAFQTPNSPGSGGFPTGRLA

Variants of B1 are the subject of data set [1]. Briefly: cAMP reporter score (Enrich2 score, wild type = 0); higher = more signal; HEK293T, FACS bins.
In data set [2] the parent is B1. Briefly: surface expression score (Enrich2 score, wild type = 0); higher = more signal; HEK293T, FACS bins.

Scores whose standard error is large were omitted. Not listed are two conditions whose scores span a narrow range. Names with del lack the residues named; names with ins carry added residues between the positions named. For part of these data: The concentration of ogerin is not given here.

Regarding R315_A316insGS, the cAMP reporter score in data set [1] (pH 5.5) is -0.525; in data set [1] (pH 6), 0.393; in data set [1] (pH 6, modulator: ogerin), -0.698; in data set [1] (pH 6.5, modulator: ogerin), -0.461. Moreover, in data set [2], the surface expression score was -0.178.

As to G302del, the cAMP reporter score was 1.27 in data set [1] (pH 5.5); -0.211 in data set [1] (pH 6); 0.632 in data set [1] (pH 6, modulator: ogerin); 0.138 in data set [1] (pH 6.5, modulator: ogerin). Besides, the surface expression score in data set [2] turned out to be 0.174.

Regarding R299del, the cAMP reporter score in data set [1] (pH 5.5) is -0.631; in data set [1] (pH 6), -1.18; in data set [1] (pH 6, modulator: ogerin) it was -1.66; in data set [1] (pH 6.5, modulator: ogerin), -1.31. The surface expression score in data set [2] is -1.24.

For the variant Y320del, the cAMP reporter score was -0.08 in data set [1] (pH 5.5); -0.073 in data set [1] (pH 6, modulator: ogerin); 0.79 in data set [1] (pH 6.5, modulator: ogerin). For the same variant, the surface expression score in data set [2] amounted to 0.774.

As for R299_L300del, the cAMP reporter score in data set [1] (pH 5.5) was -0.743; in data set [1] (pH 6), -0.297; in data set [1] (pH 6, modulator: ogerin), -1.31; in data set [1] (pH 6.5, modulator: ogerin), -0.414. Besides, the surface expression score in data set [2] was -0.633.

Consider C310_S311insG, for which the cAMP reporter score in data set [1] (pH 5.5) came out at 1.46; in data set [1] (pH 6), 0.178; in data set [1] (pH 6, modulator: ogerin) it was 1.11; in data set [1] (pH 6.5, modulator: ogerin) it was 1.66. The surface expression score in data set [2] stood at 1.12.

E318del: the cAMP reporter score in data set [1] (pH 5.5) was 0.621; in data set [1] (pH 6), 0.091; in data set [1] (pH 6, modulator: ogerin) it was 0.518; in data set [1] (pH 6.5, modulator: ogerin) it was -0.5. The surface expression score in data set [2] amounted to 0.278.

As to A306_F307del, the cAMP reporter score in data set [1] (pH 5.5) worked out at 0.844; in data set [1] (pH 6), 2; in data set [1] (pH 6, modulator: ogerin), 1.02; in data set [1] (pH 6.5, modulator: ogerin) it was 2.9. The surface expression score in data set [2] came out at 0.602.

R299_L300insG: the cAMP reporter score in data set [1] (pH 5.5) was 0.566; in data set [1] (pH 6), -0.925; in data set [1] (pH 6, modulator: ogerin), -1.45; in data set [1] (pH 6.5, modulator: ogerin), 0.075. In data set [2], the surface expression score is 1.24.

In the case of E326Q, the cAMP reporter score in data set [1] (pH 5.5) is 0.7; in data set [1] (pH 6) it was -0.118; in data set [1] (pH 6, modulator: ogerin), 1.2; in data set [1] (pH 6.5, modulator: ogerin), 0.737. For the same variant, in data set [2], the surface expression score amounted to 0.711.

Take E326P: the cAMP reporter score in data set [1] (pH 5.5) came out at 0.179; in data set [1] (pH 6) it was 0.225; in data set [1] (pH 6, modulator: ogerin) it was 0.725; in data set [1] (pH 6.5, modulator: ogerin), 1.13. In addition, the surface expression score in data set [2] is -0.031.

Consider E326D, for which the cAMP reporter score is 0.775 in data set [1] (pH 5.5); -0.125 in data set [1] (pH 6); 1.29 in data set [1] (pH 6, modulator: ogerin); 1.48 in data set [1] (pH 6.5, modulator: ogerin).

As for E326T, the cAMP reporter score was 0.69 in data set [1] (pH 5.5); -0.137 in data set [1] (pH 6); 0.699 in data set [1] (pH 6, modulator: ogerin); 0.545 in data set [1] (pH 6.5, modulator: ogerin). The surface expression score in data set [2] stood at 0.397.

With E326G, the cAMP reporter score in data set [1] (pH 5.5) stood at 2.12; in data set [1] (pH 6) it was 1.09; in data set [1] (pH 6, modulator: ogerin), 1.53; in data set [1] (pH 6.5, modulator: ogerin), 1.4. Further, the surface expression score in data set [2] is 1.42.

For the variant E326C, the cAMP reporter score in data set [1] (pH 5.5) was found to be 1.18; in data set [1] (pH 6), 0.994; in data set [1] (pH 6, modulator: ogerin), 0.931; in data set [1] (pH 6.5, modulator: ogerin), 1.48. In data set [2], the surface expression score came out at 0.281.

As to E326K, the cAMP reporter score in data set [1] (pH 5.5) was 0.489; in data set [1] (pH 6) it was 0.661; in data set [1] (pH 6, modulator: ogerin) it was 0.65; in data set [1] (pH 6.5, modulator: ogerin) it was -0.227. For the same variant, in data set [2], the surface expression score stood at 0.533.

As for E326L, the cAMP reporter score in data set [1] (pH 5.5) came out at 1.17; in data set [1] (pH 6) it was 0.403; in data set [1] (pH 6, modulator: ogerin) it was 0.614; in data set [1] (pH 6.5, modulator: ogerin), 0.889. Further, the surface expression score in data set [2] was determined as 0.957.

As to E326R, the cAMP reporter score in data set [1] (pH 5.5) came to 1.07; in data set [1] (pH 6), 1.31; in data set [1] (pH 6, modulator: ogerin), 1.36; in data set [1] (pH 6.5, modulator: ogerin), 1.66. The surface expression score in data set [2] is 1.72.

Turning to E326N, the cAMP reporter score was 0.603 in data set [1] (pH 5.5); -0.219 in data set [1] (pH 6); 0.265 in data set [1] (pH 6, modulator: ogerin); -0.508 in data set [1] (pH 6.5, modulator: ogerin). The surface expression score in data set [2] turned out to be 0.295.

E326Y: the cAMP reporter score came out at 0.557 in data set [1] (pH 5.5); 0.289 in data set [1] (pH 6); 0.366 in data set [1] (pH 6, modulator: ogerin); 0.132 in data set [1] (pH 6.5, modulator: ogerin). In addition, the surface expression score in data set [2] was 0.375.

For E326W, the cAMP reporter score in data set [1] (pH 5.5) turned out to be 0.911; in data set [1] (pH 6), 0.427; in data set [1] (pH 6, modulator: ogerin), 1.01; in data set [1] (pH 6.5, modulator: ogerin), 1.2. Further, the surface expression score in data set [2] is -0.144.

Consider E326I, for which the cAMP reporter score in data set [1] (pH 5.5) was found to be 1.41; in data set [1] (pH 6, modulator: ogerin) it was 1.46; in data set [1] (pH 6.5, modulator: ogerin), 1.05. In data set [2], the surface expression score was 1.94.

Consider E326A, for which the cAMP reporter score in data set [1] (pH 5.5) is -0.378; in data set [1] (pH 6) it was 0.514; in data set [1] (pH 6, modulator: ogerin) it was -0.138; in data set [1] (pH 6.5, modulator: ogerin), 0.359. Also, in data set [2], the surface expression score was -0.332.

Turning to E326H, the cAMP reporter score is 0.283 in data set [1] (pH 5.5); -0.133 in data set [1] (pH 6); 0.492 in data set [1] (pH 6, modulator: ogerin); 0.205 in data set [1] (pH 6.5, modulator: ogerin). For the same variant, in data set [2], the surface expression score is -0.658.

Turning to E326F, the cAMP reporter score in data set [1] (pH 5.5) is 0.106; in data set [1] (pH 6), -1.22; in data set [1] (pH 6, modulator: ogerin), 0.153; in data set [1] (pH 6.5, modulator: ogerin), 0.582. Moreover, the surface expression score in data set [2] was -0.966.

E326M: the cAMP reporter score in data set [1] (pH 5.5) was -0.83; in data set [1] (pH 6), -1.43; in data set [1] (pH 6, modulator: ogerin), -2.21; in data set [1] (pH 6.5, modulator: ogerin) it was -0.749.

In the case of E326V, the cAMP reporter score in data set [1] (pH 5.5) is 0.744; in data set [1] (pH 6, modulator: ogerin), 0.482; in data set [1] (pH 6.5, modulator: ogerin) it was 1.07. For the same variant, in data set [2], the surface expression score was found to be 0.292.

Turning to A303_C304insGSG, the cAMP reporter score was 1.63 in data set [1] (pH 5.5); -0.116 in data set [1] (pH 6); 1.05 in data set [1] (pH 6, modulator: ogerin); 0.324 in data set [1] (pH 6.5, modulator: ogerin). Besides, the surface expression score in data set [2] amounted to 0.488.

For the variant E318_A319insGS, the cAMP reporter score in data set [1] (pH 5.5) was 0.138; in data set [1] (pH 6), 0.738; in data set [1] (pH 6, modulator: ogerin), 1.01; in data set [1] (pH 6.5, modulator: ogerin) it was 0.456. Further, the surface expression score in data set [2] was found to be 0.313.

A298V: the cAMP reporter score in data set [1] (pH 5.5) was -0.565; in data set [1] (pH 6), -0.126; in data set [1] (pH 6, modulator: ogerin), -0.334; in data set [1] (pH 6.5, modulator: ogerin), -0.275. Further, in data set [2], the surface expression score was -0.342.

A298D: the cAMP reporter score in data set [1] (pH 5.5) is -0.063; in data set [1] (pH 6), -1.66; in data set [1] (pH 6, modulator: ogerin), -0.162; in data set [1] (pH 6.5, modulator: ogerin), -0.527. Further, the surface expression score in data set [2] was determined as 0.193.
